Measured values taken from a collection of fitness landscapes (doi:10.1016/j.celrep.2020.107928).
In all, about 81,000 sequences were measured (“one-hybrid fitness for binding parS DNA”: median about -0.17, highest 2% from about 0.51 on). Some of the results follow.

B1: Caulobacter ParB omega fusion; a variant is named by its letters at X, in order, B8GW30 (parent)
chain: MESVVVGEPGMSEGRRGLGRGLSALLGEVDAAPAQAPGEQLGGSREAPIEILQRNPDQPRRTFREEDLEDLSNSIREKGVLQPILVRPSPDTAGEYQIVAGERAWRAAQRAGLKTVPIMVRELDDLAVLEIGIIENVQRADLNVLEEALSYKVLMEKFERTQENIAQTIGKSXSHVANXMRLLXLPDEVQSYLVSGELTAXHARAIAAAADPVALAKQIIEGGLSVRETEALARKAPNLSAGKSKGGRPPRVKDTDTQALESDLSSVLGLDVSIDHRGSTGTLTITYATLEQLDDLCNRLTRGI

Variants of: B1
Test: one-hybrid fitness for binding parS DNA (scaled: cognate 1, non-cognate 0); higher = stronger binding
Settings: with parS DNA site
How it was run: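 The reporter was HIS3, with the binding site 19 bp from the promoter, in E. coli USO used for bacterial one-hybrid selection of Caulobacter ParB libraries with four specificity codons randomised. Growth was on M9 lacking histidine, with 0.1 mM IPTG and 5 mM 3-AT, for 48 hours at 37°C. Illumina sequencing covered plasmids before and after selection; three replicate libraries were pooled and variants with under 10 reads dropped. A fitness score is the log change in variant-to-wild-type read ratio, rescaled to the cognate and non-cognate references.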

one-hybrid fitness for binding parS DNA, 0.352:
TIIM
RETS

one-hybrid fitness for binding parS DNA, 1.01:
RQNG

one-hybrid fitness for binding parS DNA, 0.754:
RWHG

one-hybrid fitness for binding parS DNA, 0.467:
RNYA

one-hybrid fitness for binding parS DNA, 0.626:
RIPC

one-hybrid fitness for binding parS DNA, 0.92:
RAGT

one-hybrid fitness for binding parS DNA, 0.448:
RAAN

one-hybrid fitness for binding parS DNA, 0.298:
RYHM

one-hybrid fitness for binding parS DNA, ≤ 0.2:
LSCN
AMAR
TFQW
VPTM
PSWN
CRNF
SRKI
GKST
TEAV
YSPR
GWAS
KTID
CMRS
WKNA
LTKM
PERN
TMAL
TSCW
NHTY
HTVQ
SMVM
NFFR
QRQY
AISA
AGEK
IELV
RVTK
PANW
SQES
DAHF
AENW
PADV
YPCE
RFHP
KADT
ASNS
SLAP
YKHA
SYRR
HLDS
EGMP
ITVV
GIFL
VTNC
TQDF
CHPF
PQLD
YTPG
YVGR
PYLF
SYSY
RHIF
PLVY
VKNR
APYE
TIMM
GVSG
QPLD
LYQH
PEIS
TNAF
YTMC
NCST
LYAR
LFTC
SHFR
MYPE
PGTI
CYVT
CHAS
MWRS
RQSV
ISED
EGDR
AMEM
RTHK
SCAW
QYAG
RGML
DNST
GLRY
VSTH
GING
QNGT
NPQG
YQHS
TGVL
ETHP
ANRF
WHVS
DAKT
FRFK
YPQR
YSQC
KCKC
FGFR
RGNV
KNNF
YQFY
LPSQ
RYQE
IALW
QQLP
KTWY
NKCG
NNFM
LLKC
IGTR
EQDC
NYNL
HHGT
TCRA
SCLE
CKIP
DRKN
TIRM
STFV
LSHR
TIFT
CGSG
WYPP
PFMN
MVYL
GNHT
VTNL
QKRL
NVDI
LFEG
GFKG
CHNR
NAMG
SLTL
DISL
QACW
QKNT
PVQW
NQNR
VRNI
FNSS
DHSR
HATW
RRQP
DQFT
QIKD
